Measured values reported in PubChem BioAssay AID2147 (National Center for Advancing Translational Sciences (NCATS), 2009).
In all, about 230,000 compounds went through this assay and about 3,600 (1.6%) were called active. Inconclusive results, whose numbers are uncertain, are shown with a selection of clear calls. Calls come from the whole dose curve; as a rule, active = well fitted inhibition curve with a large enough effect (not every such curve was filed as active); inconclusive = small, poorly fitted or top-dose-only effect, or another doubt; inactive = no such curve, though single readings can be large or run the other way. Potencies beside an inconclusive call are fits to weak or partial responses and may not hold up.

Target: Lysine-specific demethylase 4E (Homo sapiens) (UniProt B2RXH2)
Sequence of UniProt B2RXH2 (B2RXH2 whole entry, looked up, the tested form may be a part): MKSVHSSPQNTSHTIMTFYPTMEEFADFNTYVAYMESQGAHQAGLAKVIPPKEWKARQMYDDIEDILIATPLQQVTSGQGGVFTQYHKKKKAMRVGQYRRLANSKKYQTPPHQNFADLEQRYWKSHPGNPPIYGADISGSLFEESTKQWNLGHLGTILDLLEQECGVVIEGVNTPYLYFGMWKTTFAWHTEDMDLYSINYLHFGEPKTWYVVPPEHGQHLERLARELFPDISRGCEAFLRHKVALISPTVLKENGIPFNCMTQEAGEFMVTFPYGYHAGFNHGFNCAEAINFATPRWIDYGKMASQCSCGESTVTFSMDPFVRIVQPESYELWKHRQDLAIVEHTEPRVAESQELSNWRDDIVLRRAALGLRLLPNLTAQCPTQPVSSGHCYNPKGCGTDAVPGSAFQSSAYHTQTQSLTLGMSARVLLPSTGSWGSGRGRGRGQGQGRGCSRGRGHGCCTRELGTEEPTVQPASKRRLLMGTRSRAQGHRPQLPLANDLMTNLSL
Assay: qHTS Assay for Inhibitors of Human Jumonji Domain Containing 2E (JMJD2E)
Conditions: JMJD2E catalytic domain, FDH-coupled NADH fluorescence (FDH is formaldehyde dehydrogenase); series mostly up to 57.1 µM
Note: nearly all actives have a fitted effect of over 50% in size.
Potency is the fitted concentration of half-maximal effect; tags give direction and shape of the fitted curve.
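Throughout, for activity change, negative = inhibition: 0% = wells with enzyme and -100% = buffer wells without enzyme.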

Row | Compound | Potency | activity change, negative = inhibition
1 | O=C(Cc1ccc(Cl)cc1)Nc1ccc(S(=O)(=O)Nc2cnc3ccccc3n2)cc1 | inconclusive: 25.1 µM [inhibitor, single point] | 
2 | Cc1cc(C)nc(NS(=O)(=O)c2ccc(Br)s2)c1 | inconclusive: 39.8 µM [inhibitor, single point] | 
3 | COc1ccc2c(=O)cc(-c3ccccc3F)oc2c1 | inconclusive: 28.2 µM [inhibitor, partial curve] | 
4 | CC1=C(C(=O)OCC2CCCO2)C(c2ccsc2)C2=C(CC(C)(C)CC2=O)N1 (stereo not drawn) | inconclusive: 28.2 µM [inhibitor, partial curve] | 
5 | CC(C)OC(=O)c1cc2c(OC[C@@H](O)CNC(C)(C)C)cccc2[nH]1 | inconclusive: 25.1 µM [inhibitor, partial curve] | 
6 | CCOC(=O)c1ccc(N2CCN(c3ccccc3F)CC2)c(NC(=O)Nc2ccccc2)c1 | inconclusive: 28.2 µM [inhibitor, partial curve] | 
7 | CCCOc1ccc2c3c(c(=O)oc2c1)CCCC3 | inconclusive: 31.6 µM [inhibitor, partial curve] | 
8 | CC(C)COc1ccc2[nH]c3c(c2c1)CCCC3=O | inconclusive: 31.6 µM [inhibitor, single point] | 
9 | O=C(N/N=C/c1c(O)ccc2ccccc12)c1cccc(C(F)(F)F)c1 | active: 25.1 µM | 
10 | Fc1ccc(OCc2nnc(SCCN3CCOCC3)o2)cc1 | inactive | 
11 | O=C(c1ccc2c(=O)n(-c3ccccc3)c(=O)[nH]c2c1)N1CCN(c2ccc(F)cc2)CC1 | inactive | 
12 | CCCCC1OC23CCCCC2C(C#N)(C(=N)O3)C1(C#N)C#N (stereo not drawn) | inconclusive: 31.6 µM [inhibitor, partial curve] | 
13 | C[C@H]1Cc2c(COc3ccccc3)nc3c(c2CO1)CN(C(=O)c1ccco1)CC3 |  | inactive: 0.157% [at 11.4 µM]
14 | Cc1nn(-c2ccccc2)c2sc(C(=O)OCC(=O)N3CCCCC3)cc12 | inconclusive: 3.55 µM [inhibitor, partial curve] | 
15 | COc1cccc2c1C(=O)CC(c1ccccc1)O2 (stereo not drawn) | inconclusive: 31.6 µM [inhibitor, partial curve] | 
16 | CCc1ccc(NC(=O)c2cc3c(C)nc4ccccc4c3o2)cc1 | inconclusive: 35.5 µM [inhibitor, single point] | 
17 | CCCCNc1ccc(S(N)(=O)=O)cc1[N+](=O)[O-] | inactive | 
18 | CCC1CCCCN1C(=O)c1ccc(OC2CCN(C(=O)C3CC3)CC2)cc1 (stereo not drawn) | inconclusive: 25.1 µM [inhibitor, single point] | 
19 | O=C(NCc1ccco1)c1ccc2c(c1)C(=O)N(Cc1ccccc1)C2=O | inactive | 
20 | COc1ccc(/C=N/NC(=O)c2nc(-c3ccccc3)cc(-c3ccccc3)n2)cc1 | inconclusive: 35.5 µM [inhibitor, partial curve] | 
21 | Cc1ccc(OCCCC(=O)NCc2ccco2)cc1 | inactive | 
22 | CS/C(N)=N/N=C/c1cc(C)ccc1O | inconclusive: 15.8 µM [inhibitor, partial curve] | 
23 | COCc1cc(C)c2c(N)c(C#N)sc2n1 | inconclusive: 35.5 µM [inhibitor, partial curve] | 

Row | Compound | Potency | activity change, negative = inhibition
24 | COc1cc2cc(CN(CCO)C(=O)c3cccs3)c(=O)[nH]c2cc1OC | inconclusive: 28.2 µM [inhibitor, partial curve] | 
25 | C=C(C)C(=O)O[C@H]1C/C(C)=C\C(=O)/C=C(\C)[C@H](O)[C@@H]2OC(=O)C(=C)[C@@H]21 | inconclusive: 39.8 µM [inhibitor, single point] | 
26 | COCn1c(-c2ccc(OC)cc2)nc2ccccc21 | inconclusive: 35.5 µM [inhibitor, single point] | 
27 | Cn1c(CSCc2ccc(Cl)cc2)nnc1SCC(=O)Nc1nc2ccccc2s1 | inactive | 
28 | Cc1ccc(C(=O)NC2(O)C(=O)c3ccccc3C2=O)cc1C | active: 14.1 µM | 
29 | O=C(CN1CCC(C(=O)c2cccc(Cl)c2)CC1)Nc1ccc(C(=O)O)cc1 | inactive | 
30 | CCC(c1nnc(SCCNCCO)n1CCN1CCOCC1)N(C)C (stereo not drawn) | inconclusive: 35.5 µM [inhibitor, single point] | 
31 | Nc1nnnn1/N=C/c1ccccn1 | inconclusive: 39.8 µM [inhibitor, single point] | 
32 | COc1cc(CNc2ccc(C(=O)O)cc2)cc(Br)c1OCC(=O)NC(C)(C)C | inactive | 
33 | O=C(Nc1cccc(-c2cn3c(n2)SCC3)c1)c1ccc2c(c1)OCO2 | inconclusive: 35.5 µM [inhibitor, single point] | 
34 | Cc1ccc(NC(=O)c2cccnc2C(=O)Nc2ccc(C)cc2)cc1 | inconclusive: 25.1 µM [inhibitor, single point] | 
35 | CCOc1ccc(C(=O)Nc2ccc(-c3nc4ccccc4[nH]3)cc2)cc1[N+](=O)[O-] | inactive | 
36 | COc1ccc(CN2CCN(S(=O)(=O)c3ccccc3)CC2)c(OC)c1 | inconclusive: 39.8 µM [inhibitor, single point] | 
37 | O=C(O)c1cc(-c2ccc(N3CCOCC3)cc2)nn1-c1ccccc1Cl | inconclusive: 39.8 µM [inhibitor, single point] | 
38 | CCc1cc(C(=O)N2CCCC(CCC(=O)N3CCN(c4ccccn4)CC3)C2)no1 (stereo not drawn) | inconclusive: 31.6 µM [inhibitor, partial curve] | 
39 | Nc1cc(=O)[nH]c(SCC(=O)N2N=C(c3ccc4ccccc4c3)CC2c2ccccc2)n1 (stereo not drawn) | inconclusive: 35.5 µM [inhibitor, partial curve] | 
40 | COc1ccc2[nH]c(=O)c(CNc3ccc(C)cc3C)cc2c1 | inconclusive: 28.2 µM [inhibitor, partial curve] | 
41 | CN1Cc2c(N)cccc2C(c2ccccc2)C1 (stereo not drawn) | inactive | 
42 | N#Cc1sc2nc(-c3ccccc3)cc(-c3ccco3)c2c1N | inconclusive: 20 µM [inhibitor, single point] | 
43 | Cc1ccccc1COc1ccc(/C(O)=C2/C(=O)C(=O)N(CCCn3ccnc3)C2c2ccco2)cc1 (stereo not drawn) | inconclusive: 35.5 µM [inhibitor, single point] | 
44 | O=C(/C=C/Nc1ccccc1C(F)(F)F)c1ccco1 | inconclusive: 39.8 µM [inhibitor, single point] | 
45 | CC(C)OCCCNc1ncc2c(n1)CC(c1cccs1)CC2=O (stereo not drawn) | inconclusive: 28.2 µM [inhibitor, single point] | 
46 | CC1=NN(C(C#N)c2cccc([N+](=O)[O-])c2)C(C)(C)C1 (stereo not drawn) | inconclusive: 39.8 µM [inhibitor, single point] | 

Row | Compound | Potency | activity change, negative = inhibition
47 | Cc1ccc(S(=O)(=O)NNC(=O)Nc2ccc(Cl)cc2)cc1 | inactive | 
48 | Cc1ccc(S(=O)(=O)N2CCOCC2)cc1C(=O)N1C(=O)c2cccc(N)c2C1=O | inconclusive: 25.1 µM [inhibitor, partial curve] | 
49 | CN(C)c1ccc(O)c2c1C[C@@H]1C[C@H]3C(N(C)C)C(=O)C(C(N)=O)=C(O)[C@@]3(O)C(=O)C1=C2O (stereo partly drawn) | inconclusive: 5.62 µM [inhibitor, single point] | 
50 | COc1ccc(OC)c(/C=N/NC(=O)c2[nH]ncc2Br)c1 | inconclusive: 25.1 µM [inhibitor, partial curve] | 
51 | O=C(O)c1ccccc1Sc1ncnc2sc3c(c12)CCC3 | inconclusive: 39.8 µM [inhibitor, single point] | 
52 | CC1(C)Cc2[nH]c(=O)c(C#N)cc2CS1 | inconclusive: 39.8 µM [inhibitor, single point] | 
53 | CC(C)n1c(=NC(=O)c2ccco2)c(C#N)cc2c(=O)n3ccccc3cc21 | inconclusive: 25.1 µM [inhibitor, partial curve] | 
54 | COc1ccc(F)cc1C(=O)C1CCCN(Cc2ccc3c(c2)OCCO3)C1 (stereo not drawn) | inconclusive: 39.8 µM [inhibitor, single point] | 
55 | O=C(O)C(=O)/C(=C\c1ccc(Cl)cc1)c1ccc2ccccc2n1 | inconclusive: 25.1 µM [inhibitor, partial curve] | 
56 | Cc1ccc(S(=O)(=O)c2nc(-c3ccccc3)oc2NCCCN2CCOCC2)cc1 | inconclusive: 35.5 µM [inhibitor, single point] | 
57 | CCOC(=O)c1[nH]c2ccccc2c1NC(=O)CCN1CC(C)OC(C)C1 (stereo not drawn) | inconclusive: 39.8 µM [inhibitor, single point] | 
58 | COc1cc(/C=C2\SC(=O)N(CCN)C2=O)ccc1OS(=O)(=O)c1cc(C)ccc1C | inactive | 
59 | Cc1cc(C)c(S(C)(=O)=O)c(NN)n1 | inconclusive: 31.6 µM [inhibitor, partial curve] | 
60 | CN1CCN(Cc2c(O)c(Cl)cc3c(-c4ccccc4)cc(=O)oc23)CC1 | inconclusive: 25.1 µM [inhibitor, single point] | 
61 | CCOC(=O)c1cc(CC)sc1/N=C/C1=C(O)CCCC1=O | inactive | 
62 | CCOC(=O)c1c(-c2cccc([N+](=O)[O-])c2)csc1N | inactive | 
63 | N#Cc1nc(-c2ccco2)oc1NCc1ccco1 | inconclusive: 31.6 µM [inhibitor, partial curve] | 
64 | O=S(=O)(c1cccs1)N1CN(Cc2ccc(Cl)cc2)c2nc3ccccc3nc21 | inconclusive: 31.6 µM [inhibitor, single point] | 
65 | Cc1ccc(Nc2nc(-c3ccc(S(=O)(=O)N4CCCC4)cc3)cs2)cc1C | inconclusive: 17.8 µM [inhibitor, partial curve] | 
66 | COc1ccc(OC)c(-c2cc(C(=O)Nc3cc(C)on3)no2)c1 | inconclusive: 28.2 µM [inhibitor, partial curve] | 
67 | CSc1nnc(-c2ccc(C(F)(F)F)nc2C)o1 | inconclusive: 28.2 µM [inhibitor, partial curve] | 
68 | COc1cccc(CN2CCN(Cc3nc(-c4cccs4)oc3C)CC2CCO)c1 (stereo not drawn) | inconclusive: 25.1 µM [inhibitor, single point] | 
